{"source": "the supplement of paper PMC10037445", "key": {"RAW-Dual [1]": {"system": "RAW-Dual", "experiment": "IRF Lucia reporter activity, fold change vs agonist alone; cytotoxicity flag (confluency mask): not cytotoxic; higher = enhanced IRF activity", "in_short": "(§1)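 RAW-Dual macrophages were seeded in DMEM at 50,000 cells/well in 384-well plates, given 50 nL of library stock by pin tool, and given a PRR agonist 1 h later. Plates were held at 37 °C, 5% CO2 for 20 hours, after which supernatant was read for IRF by QuantiLuc luminescence and for NF-κB by QuantiBlue absorbance at 620 nm. Reporter activity is expressed as fold change over wells that received agonist alone. A well was called cytotoxic when IncuCyte confluency fell below 70% of agonist controls in both mask sets.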"}, "RAW-Dual [2]": {"system": "RAW-Dual", "experiment": "IRF Lucia reporter activity, fold change vs agonist alone; higher = enhanced IRF activity", "details": "library stock concentration (final ~1000-fold dilution): 10 mM, agonist: MPLA (TLR4) […]", "in_short": "as §1"}, "RAW-Dual [3]": {"system": "RAW-Dual", "experiment": "IRF Lucia reporter activity, fold change vs agonist alone; cytotoxicity flag (confluency mask): cytotoxic (confluency <70% of control); higher = enhanced IRF activity", "in_short": "as §1"}, "[4]": {"details": "agonist: 3'3'-cGAMP (STING) 10 ug/mL"}, "[5]": {"details": "cytotoxicity flag (confluency mask): not cytotoxic"}}, "note": "Whole data set: some 2,900 compounds, median “IRF Lucia reporter activity, fold change vs agonist alone” near 0.9, cut for the highest 2% near 2.8. The list shows a part of the results."}
{"smiles": "CCCCCCOC(=O)c1cc(=O)c(O)c2c(O)c(O)c(OC)cc2c1", "note": "(library stock concentration (final ~1000-fold dilution): 1 mM)", "values": [{"measurement": "IRF Lucia reporter activity", "setting": "RAW-Dual [1]; [4]", "value": 0.0413}, {"measurement": "IRF Lucia reporter activity", "setting": "RAW-Dual [1]; agonist: LPS (TLR4) 0.1 ug/mL", "value": 0.872}]}
{"smiles": "CN1CCC(Nc2nc(Nc3ccc(Oc4ccccc4)cc3)c3c(=O)[nH]cc(Br)c3n2)CC1", "note": "(library stock concentration (final ~1000-fold dilution): 10 mM)", "values": [{"measurement": "IRF Lucia reporter activity", "setting": "RAW-Dual [1]; [4]", "value": 0.975}, {"measurement": "IRF Lucia reporter activity", "setting": "RAW-Dual [1]; agonist: LPS (TLR4) 0.1 ug/mL", "value": 1.02}]}
{"smiles": "CN1CCC(Nc2nc(Nc3ccc(Oc4ccccc4)cc3)c3c(=O)[nH]cc(Br)c3n2)CC1", "values": [{"measurement": "IRF Lucia reporter activity", "setting": "RAW-Dual [2]; [5]", "value": 1.03}]}
{"smiles": "COC1/C=C/OC2(C)Oc3c(C)c(O)c4c(O)c(c5c(nc6cc(C)ccn65)c4c3C2=O)NC(=O)/C(C)=C\\C=C\\C(C)C(O)C(C)C(O)C(C)C(OC(C)=O)C1C", "note": "(stereo not given)", "values": [{"measurement": "IRF Lucia reporter activity", "setting": "RAW-Dual [2]; [5]", "value": 0.796}]}
{"smiles": "COC1/C=C/OC2(C)Oc3c(C)c(O)c4c(O)c(c5c(nc6cc(C)ccn65)c4c3C2=O)NC(=O)/C(C)=C\\C=C\\C(C)C(O)C(C)C(O)C(C)C(OC(C)=O)C1C", "note": "(stereo not given) (library stock concentration (final ~1000-fold dilution): 10 mM)", "values": [{"measurement": "IRF Lucia reporter activity", "setting": "RAW-Dual [1]; [4]", "value": 1.14}, {"measurement": "IRF Lucia reporter activity", "setting": "RAW-Dual [1]; agonist: LPS (TLR4) 0.1 ug/mL", "value": 1.07}]}
{"smiles": "Cc1[nH]c(=O)c(C#N)cc1-c1ccc2nccn2c1", "values": [{"measurement": "IRF Lucia reporter activity", "setting": "RAW-Dual [2]; [5]", "value": 1}]}
{"smiles": "Cc1[nH]c(=O)c(C#N)cc1-c1ccc2nccn2c1", "note": "(library stock concentration (final ~1000-fold dilution): 10 mM)", "values": [{"measurement": "IRF Lucia reporter activity", "setting": "RAW-Dual [1]; [4]", "value": 0.909}, {"measurement": "IRF Lucia reporter activity", "setting": "RAW-Dual [1]; agonist: LPS (TLR4) 0.1 ug/mL", "value": 0.892}]}
{"smiles": "NC(=O)c1cccc(-c2cccc(OC(=O)NC3CCCCC3)c2)c1", "values": [{"measurement": "IRF Lucia reporter activity", "setting": "RAW-Dual [2]; [5]", "value": 0.294}]}
{"smiles": "NC(=O)c1cccc(-c2cccc(OC(=O)NC3CCCCC3)c2)c1", "note": "(library stock concentration (final ~1000-fold dilution): 10 mM)", "values": [{"measurement": "IRF Lucia reporter activity", "setting": "RAW-Dual [1]; [4]", "value": 0.492}, {"measurement": "IRF Lucia reporter activity", "setting": "RAW-Dual [1]; agonist: LPS (TLR4) 0.1 ug/mL", "value": 0.306}]}
{"smiles": "NC1CONC1=O", "note": "(stereo not given) (library stock concentration (final ~1000-fold dilution): 10 mM)", "values": [{"measurement": "IRF Lucia reporter activity", "setting": "RAW-Dual [1]; [4]", "value": 1.05}, {"measurement": "IRF Lucia reporter activity", "setting": "RAW-Dual [1]; agonist: LPS (TLR4) 0.1 ug/mL", "value": 1.33}]}
{"smiles": "NC1CONC1=O", "note": "(stereo not given)", "values": [{"measurement": "IRF Lucia reporter activity", "setting": "RAW-Dual [2]; [5]", "value": 1.09}]}
{"smiles": "COc1c(-c2ccc3cc(NS(C)(=O)=O)ccc3c2)cc(-n2ccc(=O)[nH]c2=O)cc1C(C)(C)C", "note": "(library stock concentration (final ~1000-fold dilution): 10 mM)", "values": [{"measurement": "IRF Lucia reporter activity", "setting": "RAW-Dual [1]; [4]", "value": 1.05}, {"measurement": "IRF Lucia reporter activity", "setting": "RAW-Dual [1]; agonist: LPS (TLR4) 0.1 ug/mL", "value": 2.59}]}
{"smiles": "COc1c(-c2ccc3cc(NS(C)(=O)=O)ccc3c2)cc(-n2ccc(=O)[nH]c2=O)cc1C(C)(C)C", "values": [{"measurement": "IRF Lucia reporter activity", "setting": "RAW-Dual [2]; [5]", "value": 1.75}]}
{"smiles": "CCN(CC)CCNC(=O)c1c(C)[nH]c(/C=C2/C(=O)Nc3ccc(-c4csc(-c5ccccc5)n4)cc32)c1C", "note": "(library stock concentration (final ~1000-fold dilution): 10 mM)", "values": [{"measurement": "IRF Lucia reporter activity", "setting": "RAW-Dual [3]; [4]", "value": 0.0953}, {"measurement": "IRF Lucia reporter activity", "setting": "RAW-Dual [3]; agonist: LPS (TLR4) 0.1 ug/mL", "value": 0.717}]}
{"smiles": "Cc1cc(Nc2nc(NC(C)c3ccc(F)cc3)c(C#N)cc2F)n[nH]1", "note": "(stereo not given)", "values": [{"measurement": "IRF Lucia reporter activity", "setting": "RAW-Dual [2]; [5]", "value": 1.1}]}
{"smiles": "Cc1cc(Nc2nc(NC(C)c3ccc(F)cc3)c(C#N)cc2F)n[nH]1", "note": "(stereo not given) (library stock concentration (final ~1000-fold dilution): 10 mM)", "values": [{"measurement": "IRF Lucia reporter activity", "setting": "RAW-Dual [1]; [4]", "value": 1.02}, {"measurement": "IRF Lucia reporter activity", "setting": "RAW-Dual [1]; agonist: LPS (TLR4) 0.1 ug/mL", "value": 0.791}]}
{"smiles": "COc1cc2nc(N3CCCC3)nc(NCCCCCN3CCCC3)c2cc1OC", "note": "(library stock concentration (final ~1000-fold dilution): 10 mM)", "values": [{"measurement": "IRF Lucia reporter activity", "setting": "RAW-Dual [3]; [4]", "value": 0.313}, {"measurement": "IRF Lucia reporter activity", "setting": "RAW-Dual [3]; agonist: LPS (TLR4) 0.1 ug/mL", "value": 2.54}]}
{"smiles": "COc1cc2nc(N3CCCC3)nc(NCCCCCN3CCCC3)c2cc1OC", "values": [{"measurement": "IRF Lucia reporter activity", "setting": "RAW-Dual [2]; cytotoxicity flag (confluency mask): cytotoxic (confluency <70% of control)", "value": 0.8}]}
{"smiles": "COc1cc2nc(N(C)CCCNC(=O)C3CCCO3)nc(N)c2cc1OC.Cl", "note": "(stereo not given)", "values": [{"measurement": "IRF Lucia reporter activity", "setting": "RAW-Dual [2]; [5]", "value": 0.985}]}
{"smiles": "COc1cc2nc(N(C)CCCNC(=O)C3CCCO3)nc(N)c2cc1OC.Cl", "note": "(stereo not given) (library stock concentration (final ~1000-fold dilution): 10 mM)", "values": [{"measurement": "IRF Lucia reporter activity", "setting": "RAW-Dual [1]; [4]", "value": 0.64}, {"measurement": "IRF Lucia reporter activity", "setting": "RAW-Dual [1]; agonist: LPS (TLR4) 0.1 ug/mL", "value": 0.963}]}
{"smiles": "Nc1nc(N)c(N=O)c(OCC2CCCCC2)n1", "note": "(library stock concentration (final ~1000-fold dilution): 10 mM)", "values": [{"measurement": "IRF Lucia reporter activity", "setting": "RAW-Dual [1]; [4]", "value": 0.368}, {"measurement": "IRF Lucia reporter activity", "setting": "RAW-Dual [1]; agonist: LPS (TLR4) 0.1 ug/mL", "value": 0.667}]}
{"smiles": "Nc1nc(N)c(N=O)c(OCC2CCCCC2)n1", "values": [{"measurement": "IRF Lucia reporter activity", "setting": "RAW-Dual [2]; [5]", "value": 0.796}]}
{"smiles": "Cn1cnc2c(F)c(Nc3ccc(Br)cc3F)c(C(=O)NOCCO)cc21", "values": [{"measurement": "IRF Lucia reporter activity", "setting": "RAW-Dual [2]; [5]", "value": 2.67}]}
{"smiles": "Cn1cnc2c(F)c(Nc3ccc(Br)cc3F)c(C(=O)NOCCO)cc21", "note": "(library stock concentration (final ~1000-fold dilution): 10 mM)", "values": [{"measurement": "IRF Lucia reporter activity", "setting": "RAW-Dual [1]; [4]", "value": 0.728}, {"measurement": "IRF Lucia reporter activity", "setting": "RAW-Dual [1]; agonist: LPS (TLR4) 0.1 ug/mL", "value": 2.67}]}
{"smiles": "CC(Nc1ncnc2[nH]cnc12)c1cc2cccc(Cl)c2c(=O)n1-c1ccccc1", "note": "(stereo not given)", "values": [{"measurement": "IRF Lucia reporter activity", "setting": "RAW-Dual [2]; [5]", "value": 1.42}]}
{"smiles": "CC(Nc1ncnc2[nH]cnc12)c1cc2cccc(Cl)c2c(=O)n1-c1ccccc1", "note": "(stereo not given) (library stock concentration (final ~1000-fold dilution): 10 mM)", "values": [{"measurement": "IRF Lucia reporter activity", "setting": "RAW-Dual [1]; [4]", "value": 0.659}, {"measurement": "IRF Lucia reporter activity", "setting": "RAW-Dual [1]; agonist: LPS (TLR4) 0.1 ug/mL", "value": 0.799}]}
{"smiles": "COc1cc(C(=O)O)ccc1O", "note": "(library stock concentration (final ~1000-fold dilution): 10 mM)", "values": [{"measurement": "IRF Lucia reporter activity", "setting": "RAW-Dual [1]; [4]", "value": 1.13}, {"measurement": "IRF Lucia reporter activity", "setting": "RAW-Dual [1]; agonist: LPS (TLR4) 0.1 ug/mL", "value": 1.35}]}
{"smiles": "CCCCCCCCCCCCCCCCn1cc[n+](Cc2ccccc2)c1C", "note": "(library stock concentration (final ~1000-fold dilution): 10 mM)", "values": [{"measurement": "IRF Lucia reporter activity", "setting": "RAW-Dual [1]; [4]", "value": 0.0559}, {"measurement": "IRF Lucia reporter activity", "setting": "RAW-Dual [1]; agonist: LPS (TLR4) 0.1 ug/mL", "value": 0.246}]}
{"smiles": "CCCCCCCCCCCCCCCCn1cc[n+](Cc2ccccc2)c1C", "values": [{"measurement": "IRF Lucia reporter activity", "setting": "RAW-Dual [2]; [5]", "value": 0.351}]}
